The CheMixHub viscosity set
“And” between values parts separate entries of the source, which are not always exact repeats. Equal values may be shown once. ± gives the uncertainty stated by the source. This continues a long series; more values of the same kind are listed elsewhere.

Test: xn = mol fraction of the nth substance listed

**Q.** Which viscosity (318.15 K, 101 kPa, x2 = 0.2529) does the source give for `NCCN` + CC(O)CO here?
**A.** Its viscosity is 2.88 ± 0.06 mPa·s.

**Q.** What about the viscosity (318.15 K, 101 kPa, x2 = 0.2984) of the same compound?
**A.** Its viscosity is 3.62 ± 0.08 mPa·s.

**Q.** What about the viscosity (318.15 K, 101 kPa, x2 = 0.3449) of the same compound?
**A.** The viscosity was 4.57 ± 0.1 mPa·s.

**Q.** And the viscosity (318.15 K, 101 kPa, x2 = 0.3926)?
**A.** Its viscosity is 5.67 ± 0.12 mPa·s.

**Q.** What about the viscosity (318.15 K, 101 kPa, x2 = 0.4413) of the same compound?
**A.** Its viscosity is 7.09 ± 0.15 mPa·s.

**Q.** What about the viscosity (318.15 K, 101 kPa, x2 = 0.4912) of the same compound?
**A.** Its viscosity is 8.75 ± 0.18 mPa·s.

**Q.** What about the viscosity (318.15 K, 101 kPa, x2 = 0.5423) of the same compound?
**A.** The viscosity was 10.8 ± 0.2 mPa·s.

**Q.** And the viscosity (318.15 K, 101 kPa, x2 = 0.5946)?
**A.** Its viscosity is 12.6 ± 0.3 mPa·s.

**Q.** What about the viscosity (318.15 K, 101 kPa, x2 = 0.6483) of the same compound?
**A.** The viscosity was 14.2 ± 0.3 mPa·s.

**Q.** And the viscosity (318.15 K, 101 kPa, x2 = 0.7032)?
**A.** The viscosity was 15.6 ± 0.3 mPa·s.

**Q.** And the viscosity (318.15 K, 101 kPa, x2 = 0.7596)?
**A.** Its viscosity is 16.7 ± 0.4 mPa·s.

**Q.** What about the viscosity (318.15 K, 101 kPa, x2 = 0.8174) of the same compound?
**A.** Its viscosity is 17.2 ± 0.4 mPa·s.

**Q.** And the viscosity (318.15 K, 101 kPa, x2 = 0.8767)?
**A.** The viscosity was 17.2 ± 0.4 mPa·s.

**Q.** What about the viscosity (318.15 K, 101 kPa, x2 = 0.9375) of the same compound?
**A.** Its viscosity is 16.5 ± 0.3 mPa·s.

**Q.** Which results are given for `COCCOCCOCCOCCOC` + O?
**A.** viscosity (298 K, 101 kPa, x1 = 0.1672): 6.408 ± 0.15 mPa·s; viscosity (298 K, 101 kPa, x1 = 0.1972): 6.2 ± 0.15 mPa·s; viscosity (298 K, 101 kPa, x1 = 0.2273): 5.915 ± 0.14 mPa·s; viscosity (298 K, 101 kPa, x1 = 0.3237): 5.112 ± 0.11 mPa·s; viscosity (298 K, 101 kPa, x1 = 0.4635): 4.334 ± 0.086 mPa·s; viscosity (298 K, 101 kPa, x1 = 0.5569): 4.179 ± 0.077 mPa·s; viscosity (298 K, 101 kPa, x1 = 0.6402): 3.78 ± 0.065 mPa·s; viscosity (298 K, 101 kPa, x1 = 0.7613): 3.495 ± 0.055 mPa·s; viscosity (298 K, 101 kPa, x1 = 0.8245): 3.443 ± 0.051 mPa·s; viscosity (298.15 K, 101.33 kPa, x1 = 0.0053): 1.082 ± 0.01 mPa·s; viscosity (298.15 K, 101.33 kPa, x1 = 0.0132): 1.424 ± 0.012 mPa·s; viscosity (298.15 K, 101.33 kPa, x1 = 0.0263): 2.173 ± 0.018 mPa·s; viscosity (298.15 K, 101.33 kPa, x1 = 0.0383): 2.931 ± 0.023 mPa·s; viscosity (298.15 K, 101.33 kPa, x1 = 0.0507): 3.724 ± 0.028 mPa·s; viscosity (298.15 K, 101.33 kPa, x1 = 0.064): 4.511 ± 0.033 mPa·s; viscosity (298.15 K, 101.33 kPa, x1 = 0.077): 5.162 ± 0.038 mPa·s; viscosity (298.15 K, 101.33 kPa, x1 = 0.0865): 5.54 ± 0.04 mPa·s; viscosity (298.15 K, 101.33 kPa, x1 = 0.1017): 6.014 ± 0.042 mPa·s; viscosity (298.15 K, 101.33 kPa, x1 = 0.1238): 6.387 ± 0.044 mPa·s; viscosity (298.15 K, 101.33 kPa, x1 = 0.151): 6.493 ± 0.045 mPa·s; viscosity (298.15 K, 101.33 kPa, x1 = 0.178): 6.376 ± 0.044 mPa·s; viscosity (298.15 K, 101.33 kPa, x1 = 0.2201): 6.024 ± 0.041 mPa·s; viscosity (298.15 K, 101.33 kPa, x1 = 0.2593): 5.661 ± 0.039 mPa·s; viscosity (298.15 K, 101.33 kPa, x1 = 0.3289): 5.077 ± 0.035 mPa·s; viscosity (298.15 K, 101.33 kPa, x1 = 0.3723): 4.782 ± 0.033 mPa·s; viscosity (298.15 K, 101.33 kPa, x1 = 0.4051): 4.585 ± 0.031 mPa·s; viscosity (298.15 K, 101.33 kPa, x1 = 0.4349): 4.431 ± 0.03 mPa·s; viscosity (298.15 K, 101.33 kPa, x1 = 0.5545): 3.959 ± 0.026 mPa·s; viscosity (298.15 K, 101.33 kPa, x1 = 0.5962): 3.839 ± 0.025 mPa·s; viscosity (298.15 K, 101.33 kPa, x1 = 0.6747): 3.662 ± 0.024 mPa·s; viscosity (298.15 K, 101.33 kPa, x1 = 0.7566): 3.524 ± 0.022 mPa·s; viscosity (298.15 K, 101.33 kPa, x1 = 0.8127): 3.436 ± 0.022 mPa·s; viscosity (298.15 K, 101.33 kPa, x1 = 0.833): 3.402 ± 0.021 mPa·s; viscosity (298.15 K, 101.33 kPa, x1 = 0.9193): 3.352 ± 0.021 mPa·s; viscosity (298.15 K, 101.33 kPa, x1 = 0.9742): 3.306 ± 0.02 mPa·s; viscosity (298.15 K, 101.33 kPa, x2 = 0.0057): 3.326 ± 0.02 mPa·s

**Q.** Which viscosity (293.15 K, 101 kPa, x1 = 0.05) does the source give for `[Br-].[Li+]` + O here?
**A.** The viscosity was 1.33 ± 0.08 mPa·s.

**Q.** And the viscosity (293.55 K, 101 kPa, x1 = 0.05)?
**A.** Its viscosity is 1.32 ± 0.07 mPa·s.

**Q.** And the viscosity (295.35 K, 101 kPa, x1 = 0.1)?
**A.** The viscosity was 2.07 ± 0.12 mPa·s.

**Q.** What about the viscosity (295.75 K, 101 kPa, x1 = 0.1) of the same compound?
**A.** Its viscosity is 2.02 ± 0.12 mPa·s.

**Q.** What about the viscosity (296.75 K, 101 kPa, x1 = 0.05) of the same compound?
**A.** Its viscosity is 1.24 ± 0.07 mPa·s.

**Q.** And the viscosity (297.25 K, 101 kPa, x1 = 0.05)?
**A.** The viscosity was 1.22 ± 0.07 mPa·s.

**Q.** What about the viscosity (298.15 K, 101 kPa, x1 = 0.05) of the same compound?
**A.** The viscosity was 1.188 ± 0.047 mPa·s.

**Q.** What about the viscosity (298.15 K, 101 kPa, x1 = 0.08) of the same compound?
**A.** The viscosity was 1.478 ± 0.059 mPa·s.

**Q.** What about the viscosity (298.15 K, 101 kPa, x1 = 0.1) of the same compound?
**A.** The viscosity was 1.989 ± 0.079 mPa·s.

**Q.** What about the viscosity (298.15 K, 101 kPa, x1 = 0.2) of the same compound?
**A.** Its viscosity is 3.254 ± 0.13 mPa·s and 7.791 ± 0.31 mPa·s and 7.79 ± 0.51 mPa·s.

**Q.** And the viscosity (301.05 K, 101 kPa, x1 = 0.175)?
**A.** Its viscosity is 3.25 ± 0.18 mPa·s.

**Q.** What about the viscosity (303.65 K, 101 kPa, x1 = 0.05) of the same compound?
**A.** The viscosity was 1.09 ± 0.06 mPa·s.

**Q.** What about the viscosity (305.55 K, 101 kPa, x1 = 0.1) of the same compound?
**A.** Its viscosity is 1.71 ± 0.1 mPa·s.

**Q.** And the viscosity (308.75 K, 101 kPa, x1 = 0.05)?
**A.** Its viscosity is 0.981 ± 0.055 mPa·s.

**Q.** And the viscosity (309.85 K, 101 kPa, x1 = 0.175)?
**A.** The viscosity was 2.73 ± 0.15 mPa·s.

**Q.** What about the viscosity (312.35 K, 101 kPa, x1 = 0.1) of the same compound?
**A.** The viscosity was 1.57 ± 0.1 mPa·s.

**Q.** What about the viscosity (312.65 K, 101 kPa, x1 = 0.05) of the same compound?
**A.** Its viscosity is 0.92 ± 0.06 mPa·s.

**Q.** And the viscosity (312.65 K, 101 kPa, x1 = 0.08)?
**A.** Its viscosity is 1.12 ± 0.07 mPa·s.

**Q.** What about the viscosity (313.15 K, 101 kPa, x1 = 0.16) of the same compound?
**A.** The viscosity was 2.05 ± 0.1 mPa·s.

**Q.** What about the viscosity (313.15 K, 101 kPa, x1 = 0.19) of the same compound?
**A.** The viscosity was 2.7 ± 0.13 mPa·s.

**Q.** And the viscosity (313.15 K, 101 kPa, x1 = 0.2)?
**A.** Its viscosity is 2.28 ± 0.11 mPa·s and 3.18 ± 0.15 mPa·s and 5.38 ± 0.35 mPa·s.

**Q.** And the viscosity (313.15 K, 101 kPa, x1 = 0.22)?
**A.** The viscosity was 3.98 ± 0.19 mPa·s.

**Q.** And the viscosity (313.15 K, 101 kPa, x1 = 0.24)?
**A.** Its viscosity is 5.01 ± 0.24 mPa·s.

**Q.** What about the viscosity (313.15 K, 101 kPa, x1 = 0.25) of the same compound?
**A.** The viscosity was 6.3 ± 0.3 mPa·s.

**Q.** And the viscosity (313.95 K, 101 kPa, x1 = 0.05)?
**A.** The viscosity was 0.896 ± 0.051 mPa·s.

**Q.** What about the viscosity (315.15 K, 101 kPa, x1 = 0.2) of the same compound?
**A.** The viscosity was 2.4 ± 0.16 mPa·s.

**Q.** And the viscosity (315.35 K, 101 kPa, x1 = 0.175)?
**A.** Its viscosity is 2.46 ± 0.14 mPa·s.

**Q.** What about the viscosity (315.95 K, 101 kPa, x1 = 0.1) of the same compound?
**A.** Its viscosity is 1.46 ± 0.08 mPa·s.

**Q.** What about the viscosity (318.85 K, 101 kPa, x1 = 0.175) of the same compound?
**A.** The viscosity was 2.34 ± 0.13 mPa·s.

**Q.** What about the viscosity (320.85 K, 101 kPa, x1 = 0.1) of the same compound?
**A.** The viscosity was 1.39 ± 0.09 mPa·s.

**Q.** What about the viscosity (322.45 K, 101 kPa, x1 = 0.08) of the same compound?
**A.** Its viscosity is 0.96 ± 0.06 mPa·s.

**Q.** What about the viscosity (322.55 K, 101 kPa, x1 = 0.05) of the same compound?
**A.** The viscosity was 0.785 ± 0.044 mPa·s.

**Q.** And the viscosity (323.15 K, 101 kPa, x1 = 0.1)?
**A.** The viscosity was 1.01 ± 0.05 mPa·s.

**Q.** What about the viscosity (323.15 K, 101 kPa, x1 = 0.12) of the same compound?
**A.** Its viscosity is 1.18 ± 0.06 mPa·s.

**Q.** And the viscosity (323.15 K, 101 kPa, x1 = 0.14)?
**A.** Its viscosity is 1.32 ± 0.06 mPa·s.

**Q.** What about the viscosity (323.15 K, 101 kPa, x1 = 0.15) of the same compound?
**A.** Its viscosity is 1.46 ± 0.07 mPa·s.

**Q.** And the viscosity (323.15 K, 101 kPa, x1 = 0.16)?
**A.** The viscosity was 1.75 ± 0.08 mPa·s.

**Q.** And the viscosity (323.15 K, 101 kPa, x1 = 0.19)?
**A.** The viscosity was 2.25 ± 0.11 mPa·s.

**Q.** What about the viscosity (323.15 K, 101 kPa, x1 = 0.2) of the same compound?
**A.** The viscosity was 1.91 ± 0.09 mPa·s and 2.61 ± 0.12 mPa·s.

**Q.** What about the viscosity (323.15 K, 101 kPa, x1 = 0.22) of the same compound?
**A.** Its viscosity is 3.24 ± 0.15 mPa·s.

**Q.** And the viscosity (323.15 K, 101 kPa, x1 = 0.24)?
**A.** The viscosity was 4.04 ± 0.19 mPa·s.

**Q.** And the viscosity (323.15 K, 101 kPa, x1 = 0.25)?
**A.** The viscosity was 5.05 ± 0.24 mPa·s.
